The densities may have been worked out from excess volumes.
Assay: xn = mol fraction of the nth substance listed
Conditions: 93.2 kPa

NC=O + CCCC[n+]1ccn(C)c1.F[P-](F)(F)(F)(F)F
x2 = 0
Conditions	mass density [kg/m3]
288.15 K	1138
298.15 K	1129.5
303.15 K	1125.3

CCCC[n+]1ccn(C)c1.F[P-](F)(F)(F)(F)F + NC=O
mass density [kg/m3]
Conditions	288.15 K	293.15 K	298.15 K	303.15 K
x1 = 0.0502	1185.5	1181.2	1176.8	1172.5
x1 = 0.0995	1218.4	1213.9	–	1205.2
x1 = 0.1488	1243.2	1238.8	1234.4	1230
x1 = 0.2006	–	–	1254.7	1250.3
x1 = 0.3001	1292.4	1288	–	1279.2
x1 = 0.3821	–	1305.3	1300.9	1296.5
x1 = 0.4985	1328	1323.6	1319.2	1314.9
x1 = 0.595	–	1335.3	1331	–
x1 = 0.6976	1349.7	–	–	1336.6
x1 = 0.7792	1356.2	–	–	1343
x1 = 0.8902	1363.3	1359	1354.7	1350.4
x1 = 1	1369	1364.7	–	1356.3

From a compilation of properties of binary mixtures (doi:10.1021/acs.jced.9b01032)
